What was measured:
BRD4 BD1 = BRD4 BD1 (Homo sapiens (Human), UniProt O60885); conditions: read-out: BRD4 Alpha IC50
MYC = assay: cells; conditions: Homo sapiens, MV4-11, 4 h, read-out: Myc IC50 (μM)

SMILES: CC(=O)N1CCc2c(c(Nc3ccc(-c4cn(C)nc4C#N)cc3F)nn2C2CCOC2)C1 (stereo not drawn) [Example 308, 4-[4-[(5-acetyl-1-tetrahydrofuran-3-yl-6,7-dihydro-4H-pyrazolo[4,3-c]pyridin-3-yl)amino]-3-fluoro-phenyl]-1-methyl-pyrazole-3-carbonitrile]
- IC50 (BRD4 BD1): 4000 nM
- IC50 (MYC): 0.43 µM

SMILES: CC(=O)N1CCc2c(c(Nc3ccc(-c4cnn(C(F)F)c4)cc3)nn2C)C1 [Example 114, (S, S)-1-[3-[3-methyl-6-(1-methylpyrazol-4-yl)-3,4-dihydro-2H-quinolin-1-yl]-1-tetrahydrofuran-3-yl-6,7-dihydro-4H-pyrazolo[4,3-c]pyridin-5-yl]ethanone]
- IC50 (BRD4 BD1): 8160 nM
- IC50 (MYC): 1.2 µM

SMILES: Cn1cc(-c2ccc(Nc3nn(C4CCOCC4)c4c3CN(C(N)=O)CC4)c(F)c2)cn1 [Example 259, N-methyl-3-[6-(1-methylpyrazol-4-yl)-7-vinyl-3,4-dihydro-2H-quinolin-1-yl]-1-tetrahydropyran-4-yl-6,7-dihydro-4H-pyrazolo[4,3-c]pyridine-5-carboxamide]
- IC50 (BRD4 BD1): > 20000 nM
- IC50 (MYC): 4.72 µM

SMILES: CNC(=O)N1CCc2c(c(Nc3ccc(-c4cnn(C)c4C)cc3F)nn2C2CCOCC2)C1 [Example 267, (S)-3-[7-cyano-3,4-dimethyl-6-(1-methylpyrazol-4-yl)-2,3-dihydroquinoxalin-1-yl]-N-methyl-1-tetrahydropyran-4-yl-6,7-dihydro-4H-pyrazolo[4,3-c]pyridine-5-carboxamide]
- IC50 (BRD4 BD1): > 20000 nM
- IC50 (MYC): 0.6 µM

SMILES: CNC(=O)N1CCc2c(c(Nc3cc(C#N)c(-c4cnn(C)c4)cc3F)nn2C2CCOCC2)C1 [Example 269, 1-[3-[4-methyl-6-(1-methylpyrazol-4-yl)-7-(trifluoromethyl)-2,3-dihydroquinoxalin-1-yl]-1-tetrahydropyran-4-yl-6,7-dihydro-4H-pyrazolo[4,3-c]pyridin-5-yl]ethanone]
- IC50 (BRD4 BD1): 18000 nM
- IC50 (MYC): 0.22 µM

SMILES: CC(=O)N1CCc2c(c(Nc3ccc(-c4cnn(C)c4)cc3F)nn2C2COC2)C1 [Example 302, 1-[3-[2-fluoro-4-(1-methylpyrazol-4-yl)anilino]-1-(oxetan-3-yl)-6,7-dihydro-4H-pyrazolo[4,3-c]pyridin-5-yl]ethanone]
- IC50 (BRD4 BD1): 8250 nM
- IC50 (MYC): 0.56 µM

SMILES: CC(=O)N1CCc2c(c(Nc3ccc(-c4cn(C)nc4C)cc3F)nn2C2CCOC2)C1 (stereo not drawn) [Example 309, 1-[3-[4-(1,3-dimethylpyrazol-4-yl)-2-fluoro-anilino]-1-tetrahydrofuran-3-yl-6,7-dihydro-4H-pyrazolo[4,3-c]pyridin-5-yl]ethanone]
- IC50 (BRD4 BD1): 3620 nM
- IC50 (MYC): 0.4 µM

SMILES: CC(=O)N1CCc2c(c(Nc3ccc(-c4c[nH]nc4C(F)(F)F)cc3F)nn2C2CCOC2)C1 (stereo not drawn) [Example 310, 1-[3-[2-fluoro-4-[3-(trifluoromethyl)-1H-pyrazol-4-yl]anilino]-1-tetrahydrofuran-3-yl-6,7-dihydro-4H-pyrazolo[4,3-c]pyridin-5-yl]ethanone]
- IC50 (BRD4 BD1): 2910 nM
- IC50 (MYC): 0.26 µM

SMILES: CC(=O)N1CCc2c(c(Nc3cc(F)cc(-c4cnn(C)c4)c3)nn2C2CCOC2)C1 (stereo not drawn) [Example 291, 1-[3-[3-fluoro-5-(1-methylpyrazol-4-yl)anilino]-1-tetrahydrofuran-3-yl-6,7-dihydro-4H-pyrazolo[4,3-c]pyridin-5-yl]ethanone]
- IC50 (BRD4 BD1): 1990 nM
- IC50 (MYC): 0.61 µM

SMILES: CC(=O)N1CCc2c(c(Nc3ccc(-c4cnn(C)c4)cc3)nn2C[C@H]2C[C@@H]2F)C1 (stereo in doubt) [Example 181, 1-[3-[5-[1-methyl-3-(trifluoromethyl)pyrazol-4-yl]indolin-1-yl]-1-(oxetan-3-yl)-6,7-dihydro-4H-pyrazolo[4,3-c]pyridin-5-yl]ethanone]
- IC50 (BRD4 BD1): 3980 nM
- IC50 (MYC): 0.31 µM

SMILES: CNC(=O)N1CCc2c(c(Nc3ccc(-c4cnn(C)c4)cc3F)nn2C2CCOCC2)C1 [Example 263, 4-(5-acetyl-1-tetrahydropyran-4-yl-6,7-dihydro-4H-pyrazolo[4,3-c]pyridin-3-yl)-1-methyl-7-(1-methylpyrazol-4-yl)-2,3-dihydroquinoxaline-6-carbonitrile]
- IC50 (BRD4 BD1): > 20000 nM
- IC50 (MYC): 1.88 µM

SMILES: CC(=O)N1CCc2c(c(Nc3ccc(-c4cnn(C5CC5)c4)cc3)nn2C)C1 [Example 153, 3-[7-cyano-6-(1-methylpyrazol-4-yl)-3,4-dihydro-2H-quinolin-1-yl]-1-tetrahydropyran-4-yl-6,7-dihydro-4H-pyrazolo[4,3-c]pyridine-5-carboxamide]
- IC50 (BRD4 BD1): 5360 nM
- IC50 (MYC): 0.64 µM

SMILES: CC(=O)N1CCc2c(c(Nc3ccc(-c4ccnn4C)cc3)nn2C)C1 [Example 109, 1-[3-[3-methyl-6-(1-methylpyrazol-4-yl)-3,4-dihydro-2H-quinolin-1-yl]-1-(oxetan-3-yl)-6,7-dihydro-4H-pyrazolo[4,3-c]pyridin-5-yl]ethanone]
- IC50 (BRD4 BD1): 7870 nM
- IC50 (MYC): 1.11 µM

SMILES: CNC(=O)N1CCc2c(c(Nc3cc(C(F)F)c(-c4cnn(C)c4)cc3F)nn2[C@H]2CCOC2)C1 [Example 261, N-methyl-3-[6-(1-methylpyrazol-4-yl)-7-methylsulfonyl-3,4-dihydro-2H-quinolin-1-yl]-1-tetrahydropyran-4-yl-6,7-dihydro-4H-pyrazolo[4,3-c]pyridine-5-carboxamide]
- IC50 (BRD4 BD1): 14500 nM
- IC50 (MYC): 0.07 µM

SMILES: CC(=O)N1CCc2c(c(Nc3ccc(-c4cn(C)nc4C(F)(F)F)cc3F)nn2CC2COC2)C1 [Example 303, 1-[3-[2-fluoro-4-[1-methyl-3-(trifluoromethyl)pyrazol-4-yl]anilino]-1-(oxetan-3-ylmethyl)-6,7-dihydro-4H-pyrazolo[4,3-c]pyridin-5-yl]ethanone]
- IC50 (BRD4 BD1): 3670 nM
- IC50 (MYC): 0.25 µM

SMILES: CC(=O)N1CCc2c(c(Nc3ccc(-c4ccn(C)n4)cc3)nn2CC2CC2)C1 [Example 103, 1-(5-acetyl-1-tetrahydrofuran-3-yl-6,7-dihydro-4H-pyrazolo[4,3-c]pyridin-3-yl)-4-methyl-6-(1-methylpyrazol-4-yl)-3,4-dihydro-2H-quinoline-7-carbonitrile]
- IC50 (BRD4 BD1): 3780 nM
- IC50 (MYC): 0.24 µM

SMILES: CNC(=O)N1CCc2c(c(Nc3cc(C(F)F)c(-c4cnn(C)c4)cc3F)nn2C2CCS(=O)(=O)CC2)C1 [Example 273, (S)-1-[3-[3,4-dimethyl-6-(1-methylpyrazol-4-yl)-7-(trifluoromethyl)-2,3-dihydroquinoxalin-1-yl]-1-tetrahydropyran-4-yl-6,7-dihydro-4H-pyrazolo[4,3-c]pyridin-5-yl]ethanone]
- IC50 (BRD4 BD1): 7880 nM
- IC50 (MYC): 0.1 µM

SMILES: CC(=O)Nc1ccc(-c2ccc(Nc3nn(C)c4c3CN(C(C)=O)CC4)cc2)cn1 [Example 163, 3-(7-(difluoromethyl)-6-(6-(methylcarbamoyl)pyridin-3-yl)-3,4-dihydroquinolin-1(2H)-yl)-N-methyl-1-(tetrahydro-2H-pyran-4-yl)-6,7-dihydro-1H-pyrazolo[4,3-c]pyridine-5(4H)-carboxamide]
- IC50 (BRD4 BD1): 4140 nM
- IC50 (MYC): 0.44 µM

SMILES: CNC(=O)N1CCc2c(c(Nc3ccc(-c4cnn(C)c4)cc3F)nn2[C@H]2CCOC2)C1 [Example 262, 3-[7-cyano-4-methyl-6-(1-methylpyrazol-4-yl)-2,3-dihydroquinoxalin-1-yl]-N-methyl-1-tetrahydropyran-4-yl-6,7-dihydro-4H-pyrazolo[4,3-c]pyridine-5-carboxamide]
- IC50 (BRD4 BD1): > 20000 nM
- IC50 (MYC): 1.21 µM

SMILES: CC(=O)N1CCc2c(c(Nc3cc(C(F)F)c(-c4cnn(C)c4)cc3F)nn2C2CCOCC2)C1 [Example 242, 1-[3-[7-(difluoromethyl)-6-(1-methylpyrazol-4-yl)-3,4-dihydro-2H-quinolin-1-yl]-1-tetrahydropyran-4-yl-6,7-dihydro-4H-pyrazolo[4,3-c]pyridin-5-yl]propan-1-one]
- IC50 (BRD4 BD1): 2480 nM
- IC50 (MYC): 0.2 µM

SMILES: CC(=O)N1CCc2c(c(Nc3ccc(-c4cncnc4)cc3)nn2C)C1 [Example 156, N-methyl-3-[6-(1-methylpyrazol-4-yl)-3,4-dihydro-2H-quinolin-1-yl]-1-[(3S)-tetrahydrofuran-3-yl]-6,7-dihydro-4H-pyrazolo[4,3-c]pyridine-5-carboxamide]
- IC50 (BRD4 BD1): > 19700 nM
- IC50 (MYC): 2.29 µM

SMILES: CC(=O)N1CCc2c(c(Nc3ccc(-c4ccc(N)nc4)cc3)nn2C)C1 [Example 157, 3-[7-(difluoromethoxy)-6-(1-methylpyrazol-4-yl)-3,4-dihydro-2H-quinolin-1-yl]-N-methyl-1-tetrahydropyran-4-yl-6,7-dihydro-4H-pyrazolo[4,3-c]pyridine-5-carboxamide]
- IC50 (BRD4 BD1): 4520 nM
- IC50 (MYC): 0.69 µM

SMILES: CC(=O)N1CCc2c(c(Nc3ccc(-c4oc(C)nc4C)cc3F)nn2C2CCOC2)C1 (stereo not drawn) [Example 249, 3-[7-(difluoromethyl)-6-(2-methoxy-4-pyridyl)-3,4-dihydro-2H-quinolin-1-yl]-N-methyl-1-tetrahydropyran-4-yl-6,7-dihydro-4H-pyrazolo[4,3-c]pyridine-5-carboxamide]
- IC50 (BRD4 BD1): 2780 nM
- IC50 (MYC): 4.09 µM

SMILES: CC(=O)N1CCc2c(c(Nc3ccc(-c4cn(C)nc4C(F)(F)F)cc3)nn2C(C)CO)C1 (stereo not drawn) [Example 276, N-methyl-3-[7-(1-methylpyrazol-4-yl)-6-(trifluoromethyl)-2,3-dihydro-1,4-benzoxazin-4-yl]-1-tetrahydropyran-4-yl-6,7-dihydro-4H-pyrazolo[4,3-c]pyridine-5-carboxamide]
- IC50 (BRD4 BD1): 1680 nM
- IC50 (MYC): 0.18 µM

SMILES: CCC(=O)N1CCc2c(c(Nc3cc(C(F)F)c(-c4cnn(C)c4)cc3F)nn2C2CCOCC2)C1 [Example 252, 3-[6-(6-acetamido-3-pyridyl)-7-(difluoromethyl)-3,4-dihydro-2H-quinolin-1-yl]-N-methyl-1-tetrahydropyran-4-yl-6,7-dihydro-4H-pyrazolo[4,3-c]pyridine-5-carboxamide]
- IC50 (BRD4 BD1): 4810 nM
- IC50 (MYC): 0.18 µM

SMILES: CNC(=O)c1ccc(-c2ccc(Nc3nn(C)c4c3CN(C(C)=O)CC4)cc2)cc1 [Example 149, 1-[3-[6-(1-methylpyrazol-4-yl)-7-(trifluoromethoxy)-3,4-dihydro-2H-quinolin-1-yl]-1-[(3S)-tetrahydrofuran-3-yl]-6,7-dihydro-4H-pyrazolo[4,3-c]pyridin-5-yl]ethanone]
- IC50 (BRD4 BD1): 2740 nM
